Experimental data as given in PubChem BioAssay AID1508623 (National Center for Advancing Translational Sciences (NCATS), 2021).
About 450 (0.94%) of roughly 48,000 compounds were called active. Inconclusive results (about 19%) are left out. The call rests on the fitted dose curve; in most records, active means well fitted inhibition curve with a large enough effect; inconclusive means small, poorly fitted or top-dose-only effect; inactive means no such curve, though single readings can be large or run the other way. This is one part of the list.

experiment: Primary qHTS for Identification of Small Molecule Inhibitors of Huntingtin Promoter Activity; conditions: HEK293 HTT promoter firefly luciferase reporter (activity 0% = vehicle and -100% = no light), 24 h; series mostly up to 57.5 µM; activity change, negative = inhibition: at the top concentration; further: nearly all actives have a fitted effect of over 50% in size
Summary of the method: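 HEK293 Fluc reporter, 2,500 cells/well, 24 h pre-culture; cpds up to 57.5 uM final, 24 h 37 degrees C; Dual-Glo, 10 min RT; normalized vehicle = 0%, zero RLU = -100%.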

Activity change, negative = inhibition, inactive:
C[C@@H](Cc1cc2c(c(C(N)=O)c1)N(CCCO)CC2)NCCOc1ccccc1OCC(F)(F)F -11.4%
Cc1nc2c(c(C)c1CCC(=O)NCc1ccccc1)c(=O)n(C)c(=O)n2C 2.36%
CCOC(=O)c1cccc(NC(=O)c2cc3c(-c4cccc(OC)c4)nn(C)c3s2)c1 -27%
CC(C)(C)c1ccc(OCC(=O)Nc2ccc(S(=O)(=O)Nc3ncccn3)cc2)cc1 -4.79%
Cc1ccc(S(=O)(=O)c2nc(S(C)(=O)=O)sc2N(C)Cc2ccccc2)cc1 -20%
Cc1cccc(NC(=O)C2CCC(CNS(=O)(=O)c3csc(C(N)=O)c3)CC2)c1C (stereo not given) -24.4%
N#Cc1c(N)n(-c2cccc(Cl)c2)c2nc3ccccc3nc12 -4.15%
COc1cccc(Nc2cc(C)nc3nc(-c4ccc(Cl)cc4)nn23)c1 -4.89%
Cc1nn2c(=O)cc(COc3ccc(/C=C(\C#N)C(=O)Nc4ccc(F)cc4)cc3)nc2s1 -5.24%
Cc1nn(C)c2c1c(-c1ccccc1)cc(=O)n2CC(=O)Nc1ccccc1C(F)(F)F -15%
O=C(COc1ccccc1Cl)Nc1nnc(S(=O)(=O)N2CCCCCC2)s1 -18.1%
O=C(NCCCc1nc2ccccc2n1Cc1c(F)cccc1Cl)C1CCCCC1 -0.721%
Cc1cn2c(=O)cc(COc3ccc(Cl)cc3)nc2s1 20.2%
COc1cc(NC(=O)Nc2cccc(-c3noc(C)n3)c2)cc(OC)c1OC -27.8%
CCOc1ccc(-n2c(=O)c3c(C)c(C)sc3n(CC(=O)N(CC)Cc3ccccc3)c2=O)cc1 -1.86%
Cc1ccc(Cl)cc1NC(=O)Cc1ccc(-n2c(C)nc3cccnc32)cc1 -24.5%
CCOc1ccc(CNc2nc3nc(C)c(Cc4ccccc4)c(=O)n3[nH]2)cc1 -2.24%
COc1ccc2c(c1)CC(C(=O)Nc1cc(Cl)ccc1C)CO2 (stereo not given) -24.2%
CCc1ccc(CNC(=O)C2Cc3cc(S(=O)(=O)N4CCCCCC4)ccc3N2C(C)=O)cc1 (stereo not given) -11.3%
COc1cc(C2c3c(oc4ccccc4c3=O)C(=O)N2c2ccccn2)cc(OC)c1OC (stereo not given) -16.4%
COc1ccc(N(Cc2cccs2)C(=O)c2ccc(OCC(C)C)cc2)cc1 -29.3%
CCCc1nn2c(=O)cc(COC(=O)c3ccccc3NC(=O)c3cccs3)nc2s1 17.9%
COC(=O)[C@@H]1[C@H]2C[C@H]3c4[nH]c5ccccc5c4CCN3C[C@@H]2CC[C@@H]1O 5.12%
Cc1ccc(C)c(C(=O)c2c(N)c(-c3nc(-c4ccc5c(c4)OCO5)cs3)c3ccccn23)c1 -36.4%
Cc1cccc(NC(=O)C2CCC(CNS(=O)(=O)c3ccc(Br)s3)CC2)c1 (stereo not given) -29.6%
Cc1ccc(OCC(=O)Nc2ccc(Cl)c(-c3nc4ncccc4o3)c2)c(C)c1 6.91%
COc1cccc(C2CC(=O)N(c3ccc(F)cc3)C3=C2C(=O)OC3)c1OC (stereo not given) 16.3%
Cc1ccc(C)c(NC(=O)CN2C(=O)COc3ccc(Cl)cc32)c1 -27.6%
C[N+](C)([O-])CCNc1ccc(NCC[N+](C)(C)[O-])c2c1C(=O)c1c(O)ccc(O)c1C2=O -6.33%
Cn1c(=O)nc2n(-c3ccc(Cl)c(Cl)c3)c3cc(Cl)ccc3cc-2c1=O -4.29%
O=C(Nc1c(C(=O)Nc2ccc(F)cc2)oc2ccccc12)c1ccccc1F -2.21%
CCCCNC(=O)NS(=O)(=O)c1ccc(C)cc1 6.28%
COc1ccccc1CNC(=O)C1CCCN(c2nnc(-n3c(C)ccc3C)s2)C1 (stereo not given) -15.9%
Cc1cc(O)cc2c1O[C@](C)(CCC[C@H](C)CCC[C@H](C)CCCC(C)C)CC2 2.91%
COc1ccc(C(=O)N(Cc2ccc(C(C)C)cc2)C2CCS(=O)(=O)C2)cc1 (stereo not given) -28.9%
Cc1nc2nc(SCC(=O)NCCc3ccccc3)nn2c(C)c1Cc1c(F)cccc1Cl -4.4%
Cc1ccccc1CNS(=O)(=O)c1csc(C(N)=O)c1 -18.6%
CCn1c(SCCOc2ccccc2F)nc2ccccc21 -3.21%
CCOc1ccccc1C(=O)Nc1ccc2c(c1)N(C)C(=O)c1ccccc1S2 -26.3%
Cc1c(C2=CCN(S(=O)(=O)c3ccc(CC(C)C)cc3)CC2)c2ccccc2n1CC(=O)N1CCCC1 -24.3%
Cc1nn(-c2ccc(N3CCOCC3)nn2)c(C)c1CCC(=O)NCc1ccc(OC(C)C)cc1 -16.7%
Cc1cccc(N(C)S(=O)(=O)c2cc3c(cc2Cl)NC(=O)CO3)c1 -26.6%
CCOc1ccc(NS(=O)(=O)c2ccc3[nH]c4c(c3c2)CCCC4)cc1 -3.83%
COc1ccc(-c2cn3nc(N4CCC(C(=O)Nc5cccc(C)c5C)CC4)sc3n2)cc1 -16.3%
CCCSc1ncc(Cl)c(C(=O)Nc2sc3c(c2C(=O)NCCOC)CCCC3)n1 -8.41%
Cc1c(Cl)cccc1NC(=O)CSc1nc(=O)n(Cc2ccccn2)c2c1CCC2 -11.5%
O=C(Nc1ccc(F)cc1F)c1cc(-c2ccccc2O)no1 -12.6%
Cc1ccc(NC(=O)Cn2c(=O)n(CCCCC(=O)NCCc3ccccc3)c(=O)c3ccccc32)c(C)c1 -7.56%
CCCCOC(=O)c1ccc(NC(=O)c2cc3c(=O)n4cccc(C)c4nc3n2C)cc1 0.532%
COCCNC(=O)CCCn1c(=O)c2cc(OC)c(OC)cc2n(CC(=O)Nc2ccc(F)cc2)c1=O -10%
O=C(COc1ccccc1Cl)Nc1ccc2oc(-c3ccccc3F)nc2c1 14%
CCOC(=O)C1CCN(CCC(=O)Nc2ccc(Br)c(C)c2)CC1 -5.91%
O=C(CSc1nc(=O)[nH]c2c1CCCC2)Nc1ccccc1C(F)(F)F -18.2%
Cc1ccc(NC(=O)C(NS(=O)(=O)c2ccc3c(c2)CCC(=O)N3)c2ccccc2)cc1C (stereo not given) -9.25%
COc1ccc(NC(=O)c2nnn(Cc3nc(-c4cc(Br)ccc4OC)oc3C)c2C)cc1 -6.72%
CCOc1cccc(C2c3c(oc4ccc(F)cc4c3=O)C(=O)N2CCc2ccc(OC)cc2)c1 (stereo not given) 5.92%
COc1ccc(Nc2cc(C(=O)NC3CCCC3)c3ccccc3n2)c(OC)c1 -3.13%
CCNC(=O)Cn1c(-c2cccs2)cc2ccccc21 -24.2%
Cc1ccc(CN(C(=O)Nc2cccc(Cl)c2)c2ccccn2)cc1 -4.72%
Cc1oc(C)c2c(=O)cc(-c3ccc4c(c3)OCO4)cc(OC(=O)c3ccccc3Br)c12 -26.8%
COc1ccc(NC(=O)C2CCN(S(=O)(=O)c3ccc4c(c3)CCCC(=O)N4)CC2)cc1Cl -21.3%
COc1ccc(S(=O)(=O)N2CCN(c3ccccc3OC)CC2)cc1-c1noc(C)n1 4.89%
COc1cc(/C=C(\C#N)c2nc3ccccc3c(=O)[nH]2)cc(OC)c1OC 13.9%
Cc1ccc(Cn2c(-c3ccccc3)nc3ccccc32)cc1 6.78%
Cc1ccc(-c2nc3ccccc3n3c(-c4ccccc4)c4c(=O)n(C)c(=O)n(C)c4c23)cc1 -4.93%
CCn1ccc2cc(S(=O)(=O)N3CCCN(C(=O)NCC(C)C)CC3)ccc21 -33.1%
COc1cc(OC)c(NC(=O)c2cc(CN3CCOCC3)on2)cc1Cl 1.76%
Cc1ccc(C)c(Cn2c(=O)n(CCCCC(=O)NCc3ccccc3Cl)c(=O)c3ccccc32)c1 2.16%
CCn1ccc2cc(S(=O)(=O)N3CCC(C(=O)NCc4cccc(C)c4)CC3)ccc21 -28.9%
CCOc1ccccc1NC(=O)Cn1ccn(-c2ccccc2)c(=O)c1=O -18.1%
COc1ccccc1N1CCN(c2csc3ccc(Cl)cc3c2=O)CC1 -8.32%
CCCCNC(=O)c1cc(Sc2ccc(OCC)cc2)nc2ccccc12 -18.3%
CCn1cc(C(=O)NCc2ccc(C)cc2)c(=O)c2cc(S(=O)(=O)N3CCC(C)CC3)ccc21 -0.99%
O=C(CN1C(=O)C2CCCCN2c2ccc(C(=O)N3CCCC3)cc21)NCc1cccc(Cl)c1 (stereo not given) -49%
CC(=O)[C@H]1CC[C@H]2[C@@H]3C[C@H](C)C4=CC(=O)CC[C@]4(C)[C@H]3[C@@H](O)C[C@]12C -1.77%
Cc1ccc(Cl)c2sc(NC(=O)CS(=O)(=O)c3ccc(Cl)cc3)nc12 -9.79%
CCOc1ccc(CNS(=O)(=O)c2c(C(=O)N3CCCCCC3)c(C)n(C)c2C)cc1OC -2.8%
CCOC(=O)OC(C)OC1=C(C(=O)Nc2ccccn2)N(C)S(=O)(=O)c2ccccc21 (stereo not given) 7.42%
Cc1ccc(NC(=O)Nc2nnc(N3CCCC3)s2)c(C)c1 7.47%
COc1ccc(-c2cn3nc(N4CCC(C(=O)Nc5cccc(Cl)c5)CC4)sc3n2)cc1 14.6%
Cc1ccc(CNC(=O)Cc2coc3cc(C)cc(C)c23)cc1 -7.82%
CCCCN(C)C(=O)C1CCCN(c2ncnc3onc(-c4ccc(F)cc4)c23)C1 (stereo not given) -22.7%
CCN(CC)S(=O)(=O)c1ccc2c(c1)c(=O)c(C(=O)NCc1ccccc1)cn2C -9.91%
COc1ccc(CNC(=O)CCC(=O)N2CC3CCCN3c3ccccc32)cc1 (stereo not given) -1.97%
COc1ccccc1CNC(=O)c1ccc(CS(=O)(=O)c2ccccc2C)o1 -12.9%
COc1cc(CN(CC2CCCO2)C(=O)c2ccc(F)cc2)cc(OC)c1OC (stereo not given) -3.46%
CCCNC(=O)c1ccc(-n2c(-c3ccccc3)cc3c2CCCCC3)cc1 12%
COc1ccccc1CNC(=O)C(CC(C)C)NS(=O)(=O)c1ccc2c(c1)oc(=O)n2C (stereo not given) -12%
Cn1c(=NC(=O)c2ccc3c(c2)OCCO3)sc2cc(S(C)(=O)=O)ccc21 -12.9%
CCC(=O)N1CCc2cc(S(=O)(=O)NCCC(=O)NCc3ccccc3Cl)ccc21 -8.39%
Cc1ccccc1-c1noc(C(C)NC(=O)c2ccco2)n1 (stereo not given) -10.5%
CCOC(=O)c1ccc(NC(=O)C2CCCN(c3ccc(Sc4ccc(C)cc4)nn3)C2)cc1 (stereo not given) -26.3%
COC(=O)c1ccc(-n2nnc(-c3nc(-c4ccc5c(c4)OCO5)no3)c2C)cc1 -6.78%
CC(C)c1nc2ccc(C(=O)NCCCN3CCN(c4ccccc4F)CC3)cc2o1 -27.3%
CCN(C(=O)CN(C)S(=O)(=O)c1ccc2c(c1)c(=O)n(C)c(=O)n2C)c1ccc(OC)cc1 -11.9%
